Where “and” joins values, the source holds several entries; their conditions need not be identical. Equal entries are not always repeated. Among all 94,000 compounds or so, about 4,000 (4.3%) were called active. The shares of active, inactive and inconclusive entries below differ from those in the screen. Calls follow the shape of the dose curve; as a rule, active = well fitted inhibition curve with a large enough effect; inconclusive = small, poorly fitted or top-dose-only effect; inactive = no such curve, though single readings can be large or run the other way. Where the call is inconclusive, the potency comes from a doubtful curve fit.
Assay: Cytotoxic Profiling in NIH 3T3 Cell Line of Diverse Libraries Using Quantitative High-Throughput Screening; also: nearly all actives have a fitted effect of over 55% in size
Details: NIH 3T3 viability, CellTiter-Glo ATP luminescence, 48-72 h; activity change, negative = cytotoxicity: at 96.7 µM (top of the series) unless noted; series mostly up to 96.7 µM
Outline: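 ATP-dependent luminescence (CellTiter-Glo) served as the viability signal for NIH 3T3 cells treated with compound for 48 or 72 hr at 37 °C.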
% is scaled to controls: 0 for no effect and ±100 for the full control effect; potency is read from the fitted curve at half-maximal effect; tags tell the direction and shape of the fitted curve.

| Structure (SMILES) | Potency | activity change, negative = cytotoxicity | outcome |
| --- | --- | --- | --- |
| CC(C)c1ccc(CNC(=O)CN2CCCc3nc(C4CC4)ncc3C2=O)cc1 | inconclusive: 35.5 µM [inhibitor, full curve, poor fit] | – | – |
| CC(=O)Nc1ccc(S(=O)(=O)N[C@H]2CO[C@H]3[C@@H]2OC[C@@H]3Nc2nccc(-c3ccco3)n2)cc1 | inconclusive: 31.6 µM [inhibitor, full curve] | – | – |
| O=C(NCc1ccc(F)c(F)c1)C1CCN(c2ccnc3ccnn23)CC1 | inconclusive: 22.4 µM [inhibitor, full curve] | – | – |
| COc1ccc(NC(=O)C2CCCN(c3cnn(Cc4ccccc4)c(=O)c3)C2)cc1OC (stereo not given) | inconclusive: 70.8 µM [inhibitor, single point] | – | – |
| Cc1csc(NC(=O)c2nc3c(o2)CCN(Cc2cccc(F)c2)CC3)n1 | inconclusive: 44.7 µM [inhibitor, partial curve, poor fit] | – | – |
| COc1ccc(C(=O)N2CCN(c3cc(-c4ccc(F)cc4)[nH]n3)CC2)cc1 | inconclusive: 22.4 µM [inhibitor, full curve] | – | – |
| NCCN1C(=O)CO[C@H](c2ccc(NC(=O)NCc3ccccc3)cc2)[C@H]1CO | inconclusive: 126 µM [inhibitor, single point] | – | – |
| COc1ccc(CCNC(=O)CC(c2cccc(OC)c2OC)c2c[nH]c3ccccc23)cc1OC (stereo not given) | inconclusive: 50.1 µM [inhibitor, partial curve, poor fit] | – | – |
| COc1ccc(NC(=O)c2nc(C(O)c3ccccc3F)oc2C)cn1 (stereo not given) | – | inactive: -8.81% [at 138 µM] | – |
| COC(=O)[C@@H]1Cc2ncn(Cc3ccc(OC)cc3)c2CN1S(=O)(=O)Cc1ccccc1 | inconclusive: 89.1 µM [inhibitor, single point] | – | – |
| CN(Cc1ccccc1)C(=O)c1coc(CN2CCN(c3ccccc3F)CC2)n1 | – | inactive: -22.1% | – |
| COCC(=O)NC[C@@H]1C=C(C)[C@H](Cc2nnc(-c3cncn3C)o2)C[C@H]1C(C)C | inconclusive: 89.1 µM [inhibitor, partial curve, poor fit] | – | – |
| O=C(N[C@H]1[C@H](O)[C@H](O)C[C@@H]1c1cccnc1)c1ccccc1 | – | inactive: -9.68% [at 174 µM] | – |
| COc1ccccc1-c1ccc(C(=O)N2CCC(NC(=O)Cc3cccc(Cl)c3)CC2)cc1 | active: 44.7 µM and active: 15.8 µM | – | – |
| CCN(C)C(=O)C(C)N1CCc2onc(C(c3ccccc3)c3ccccc3)c2C1 (stereo not given) | inconclusive: 31.6 µM [inhibitor, partial curve] | – | – |
| COCC(=O)N1CCC(Oc2cnc3c(ccn3-c3cncnc3)c2)CC1 | inconclusive: 100 µM [inhibitor, single point] | – | – |
| COc1ccccc1-c1cn(C)c(=O)n2cc(CN3CCNC(=O)C3)nc12 | inconclusive: 112 µM [inhibitor, single point] | – | – |
| Cc1cccc(-n2nc(C)c(CCC(=O)NC3CC3)c2Oc2ccccc2)c1 | inconclusive: 50.1 µM [inhibitor, partial curve, poor fit] | – | – |
| OCCC1CN(Cc2cc3c(cc2Cl)OCO3)CCN1Cc1ccccc1F (stereo not given) | inconclusive: 50.1 µM [inhibitor, partial curve, poor fit] | – | – |
| COc1cc(=O)n2c(c1C(=O)N1CCN(c3cccc(C)c3)CC1)CCCC2 | – | – | inactive |

| Structure (SMILES) | Potency | activity change, negative = cytotoxicity | outcome |
| --- | --- | --- | --- |
| O=C(Cn1nc2c(cc1=O)CCCC2)NCc1cccc(Cl)c1 | – | inactive: 2.55% | – |
| CN(C(=O)Cn1cccc1-c1nc(-c2ccccc2)no1)c1ccc(F)cc1 | – | inactive: -25% | – |
| O=C1NCc2ccccc2CC12CCCN(CCCc1ccccc1)C2 (stereo not given) | inconclusive: 89.1 µM [inhibitor, partial curve, poor fit] | – | – |
| COc1ccc(-n2nc3n(c2=O)CCN(Cc2ccc(C(F)(F)F)cc2)C3)cc1 | inconclusive: 44.7 µM [inhibitor, partial curve, poor fit] | – | – |
| CCOC(=O)CN(Cc1cccs1)[C@@H]1C[C@@H]2CO[C@H](C(C)C)C[C@@H]2C1 | inconclusive: 12.6 µM [inhibitor, partial curve, poor fit] | – | – |
| COC1CN(c2cccc(F)c2)C12CCN(C(=O)NC1CCCCC1)CC2 (stereo not given) | inconclusive: 50.1 µM [inhibitor, partial curve, poor fit] | – | – |
| CC(=O)c1c(C)nn(CC(=O)N2CCC(c3cc(C(C)C)n[nH]3)CC2)c1C | inconclusive: 79.4 µM [inhibitor, partial curve, poor fit] | – | – |
| CN(C)C(=O)c1ccc(CC2CCN(C(=O)CC3CCCCC3)CC2)cc1 | inconclusive: 35.5 µM [inhibitor, partial curve] | – | – |
| Fc1ccc(NC(=S)N[C@H]2CO[C@H]3[C@@H]2OC[C@@H]3n2nnnc2Oc2ccc3c(c2)OCO3)cc1 | inconclusive: 17.8 µM [inhibitor, full curve, poor fit] | – | – |
| COc1ccc(-c2cc(N3CCCN(C(=O)Cc4cccc(Cl)c4)CC3)n[nH]2)cc1 | inconclusive: 44.7 µM [inhibitor, partial curve, poor fit] | – | – |
| O=C(O)C1CCc2nnc(C3CCN([S+](=O)([O-])C4CCCC4)CC3)n21 (stereo not given) | – | inactive: -11.6% | – |
| COc1ccc(C(=O)N2CCC3(CC(c4cccc(C(F)(F)F)c4)=NO3)C2)cc1 (stereo not given) | inconclusive: 39.8 µM [inhibitor, partial curve, poor fit] | – | – |
| O=C(NCc1cccs1)c1cc2n(n1)CC(c1ccc(Cl)cc1)OC2 (stereo not given) | inconclusive: 70.8 µM [inhibitor, single point] | – | – |
| COc1ccc(Cl)cc1C(=O)N1CCC(Cc2nc(-c3cnccn3)no2)CC1 | inconclusive: 10 µM [inhibitor, full curve, poor fit] | – | – |
| CC(=O)NC1(C)CCN(Cc2ccccc2-c2ccc3c(ccn3C)c2)C1 (stereo not given) | active: 89.1 µM | – | – |
| COc1ccc(CC(=O)N2CCC3(CC2)CC(NC(=O)NC(C)C)c2ccccc23)cc1 (stereo not given) | – | inactive: -23.7% | – |
| CCN1c2cc(C(=O)Nc3ccc(F)cc3)ccc2C(=O)N2CCCCCC21 (stereo not given) | inconclusive: 70.8 µM [inhibitor, single point] | – | – |
| CC(=O)N1CCN(c2nc3c(s2)CC(C(=O)Nc2cc(F)cc(F)c2)CC3)CC1 (stereo not given) | inconclusive: 28.2 µM [inhibitor, full curve, poor fit] | – | – |
| Cc1ccccc1-n1nc(C)c(CCC(=O)NCC2CCCO2)c1Oc1ccccc1F (stereo not given) | – | inactive: -20.6% | – |
| Cc1onc(-c2cnn(C)c2NCCc2ccccc2)c1C(=O)N1CCCC1 | inconclusive: 89.1 µM [inhibitor, single point] | – | – |

| Structure (SMILES) | Potency | activity change, negative = cytotoxicity | outcome |
| --- | --- | --- | --- |
| COc1cccc(-c2ccc(CN3CCCC(N[S+](=O)([O-])c4cccc(C(F)(F)F)c4)C3)cc2)c1 (stereo not given) | inconclusive: 17.8 µM [inhibitor, full curve, poor fit] | – | – |
| Cc1ccccc1Nc1n[nH]c(C(O)c2ccc3c(c2)CCO3)n1 (stereo not given) | inconclusive: 100 µM [inhibitor, partial curve, poor fit] | – | – |
| N#Cc1cccc(C(=O)N2CCCN(S(=O)(=O)c3ccccc3)CCC(=O)NCC2)c1 | inconclusive: 70.8 µM [inhibitor, single point] | – | – |
| O=C(c1ccc(C(F)(F)F)cc1)N1CCc2nc(-c3ccc(Cl)cc3)nc(-c3ccccc3)c2C1 | – | inactive: -17.8% | – |
| CCn1c2c(c(=O)n1-c1ccccc1)CCN(Cc1cncc(OC)c1)C2 | active: 100 µM | – | – |
| O=C1NCCOCCN(S(=O)(=O)c2ccc3c(c2)CCC3)[C@@H]2CCCC[C@H]12 | inconclusive: 50.1 µM [inhibitor, partial curve, poor fit] | – | – |
| CS(=O)(=O)N1CCCC1c1noc(CCC(=O)N2CC=C(c3ccccc3)CC2)n1 (stereo not given) | inconclusive: 50.1 µM [inhibitor, single point] | – | – |
| COc1ccc(CN2C(=O)CO[C@H](c3ccc(NS(=O)(=O)c4ccccc4)cc3)[C@H]2CO)cc1 | inconclusive: 50.1 µM [inhibitor, partial curve, poor fit] | – | – |
| CNC(=O)c1cccc(-c2cnc(Nc3cccc(C(F)(F)F)c3)c3c2CCO3)c1 | active: 39.8 µM | – | – |
| Fc1ccc(CN2CC[C@H](c3nc4ccccc4o3)C2)cc1F | – | inactive: -26.2% [at 138 µM] | – |
| O=C(Cc1ccccc1)N1C[C@@H](CO)[C@@H]2Oc3ccc(Cl)cc3[C@@H]21 | inconclusive: 44.7 µM [inhibitor, partial curve, poor fit] | – | – |
| CN(C(=O)c1c(F)cccc1Cl)C1CCc2nn(C)c(=O)n2CC1 (stereo not given) | – | – | inactive |
| COc1ccc(-c2cccc(C(=O)NCC(C)C)c2)nn1 | inconclusive: 100 µM [inhibitor, partial curve, poor fit] | – | – |
| O=C(NCc1cccc(F)c1)c1cnc2c(c1)N(C(=O)Cc1cccc(C(F)(F)F)c1)CCC2 | inconclusive: 50.1 µM [inhibitor, partial curve, poor fit] | – | – |
| CCN1c2cc(C(=O)Nc3ccc(Br)c(C)c3)ccc2C(=O)N2CCCCC21 (stereo not given) | inconclusive: 28.2 µM [inhibitor, full curve, poor fit] | – | – |
| O=C(NCc1cccc(F)c1)C1CCN(C(=O)c2ccc(-c3cccs3)cc2)CC1 | inconclusive: 17.8 µM [inhibitor, full curve] | – | – |
| CC1=C[C@@H](CN2CCC(CO)CC2)[C@H](C(C)C)C[C@H]1Cc1nnc(-c2ccc([N+](=O)[O-])cc2)o1 | inconclusive: 44.7 µM [inhibitor, partial curve, poor fit] | – | – |
| O=C(c1cc(-c2cc(Cl)cc(Cl)c2)c2cccn2n1)N1CCOCC1 | active: 35.5 µM | – | – |
| COCCn1nc2n(c1=O)CCN(C(=O)Cc1c[nH]c3ccccc13)CC2 | – | inactive: 3.8% | – |
| COc1ccc(OCC2CN(Cc3cccs3)[S+](=O)([O-])c3cccnc3O2)cc1 (stereo not given) | inconclusive: 28.2 µM [inhibitor, partial curve, poor fit] | – | – |

Source: PubChem BioAssay AID1345082 (National Center for Advancing Translational Sciences (NCATS), 2018)
